In the supplement of paper PMC4604168 (melanoma cell lines):
This is one part of the list. Single values are uncertain, as repeats are few or missing.

Columns and labels:
Assay in all cases: cell count relative to DMSO control; melanoma cells; higher = more viable cells
Conditions in all cases: library dose: standard library concentration; 72 h
G361 = system: G361
IPC-298 = system: IPC-298
IST-MEL1 = system: IST-MEL1
LB2518-MEL = system: LB2518-MEL
LOXIMVI = system: LOXIMVI
MEL-HO = system: MEL-HO
MZ2-MEL = system: MZ2-MEL
MeWo = system: MeWo
RPMI7951 = system: RPMI7951
RVH-421 = system: RVH-421
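Further: cells treated in 1,536-well plates, then fixed and DAPI-stained, with nuclei counted from automated high-throughput microscope images.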

| Compound | cell count (G361) [%] | cell count (IPC-298) [%] | cell count (IST-MEL1) [%] | cell count (LB2518-MEL) [%] | cell count (LOXIMVI) [%] | cell count (MEL-HO) [%] | cell count (MZ2-MEL) [%] | cell count (MeWo) [%] | cell count (RPMI7951) [%] | cell count (RVH-421) [%] |
| --- | --- | --- | --- | --- | --- | --- | --- | --- | --- | --- |
| COc1ccc(C2=N[C@@H](c3ccc(Cl)cc3)[C@@H](c3ccc(Cl)cc3)N2C(=O)N2CCNC(=O)C2)c(OC(C)C)c1 [Nutlin-3] + COc1ccc(Cl)c(Nc2nc3ccccc3nc2NS(=O)(=O)c2cccc(NC(=O)C(C)(C)N)c2)c1 [XL147] (first compound 0.5 µM, partner dose 4 µM) | 62.4 | 78.1 | 62.6 | 66 | 58.7 | 70.4 | 84 | 93.1 | 98.9 | 52.7 |
| CC(C)C[C@H](NC(=O)[C@H](Cc1ccccc1)NC(=O)c1cnccn1)B(O)O [Bortezomib] + Nc1ncn([C@H]2C[C@H](O)[C@@H](CO)O2)c(=O)n1 [decitabine] (first compound 0.005 µM, partner dose 0.5 µM) | 1.05 | 6.84 | 4.45 | 1.83 | 5.32 | 22.3 | 2.84 | 14.4 | 1.11 | 5.27 |
| Cn1c(=O)n(-c2ccc(C(C)(C)C#N)cc2)c2c3cc(-c4cnc5ccccc5c4)ccc3ncc21 + c1cc(-c2cnn3cc(-c4ccc(OCCN5CCCCC5)cc4)cnc23)ccn1 [Dorsomorphin] (first compound 0.02 µM, partner dose 2 µM) | 37.1 | 68.1 | 64.6 | 56.1 | 101 | 63.5 | 49.3 | 43.1 | 54.7 | 86.4 |
| Cc1cn(-c2cc(NC(=O)c3ccc(C)c(Nc4nccc(-c5cccnc5)n4)c3)cc(C(F)(F)F)c2)cn1 [nilotinib] + OCc1c[nH]c2ccccc12 [Indole-3-carbinol] (first compound 1 µM, partner dose 4 µM) | 100 | 96.4 | 93.7 | 87.5 | 80.1 | 113 | 95.3 | 91.7 | 106 | 126 |
| CC(C)C[C@H](NC(=O)[C@H](Cc1ccccc1)NC(=O)c1cnccn1)B(O)O [Bortezomib] + O=C(Nc1cccc(Cl)c1)Nc1ncc(CCNc2ncnc3ccsc23)s1 [SNS314] (first compound 0.005 µM, partner dose 0.004 µM) | 0.565 | 14.8 | 7.88 | 4.85 | 16.5 | 30.6 | 3.28 | 14.8 | 6.43 | 4.32 |
| CC(C)C[C@H](NC(=O)[C@H](Cc1ccccc1)NC(=O)c1cnccn1)B(O)O [Bortezomib] + CNC(=O)c1cc(Oc2ccc(NC(=O)Nc3ccc(Cl)c(C(F)(F)F)c3)cc2)ccn1 [sorafenib] (first compound 0.005 µM, partner dose 2 µM) | 2.06 | 11.1 | 6.03 | 4.05 | 23.3 | 28.1 | 3.69 | 19.3 | 3.1 | 7.09 |
| COc1ccc(C2=N[C@@H](c3ccc(Cl)cc3)[C@@H](c3ccc(Cl)cc3)N2C(=O)N2CCNC(=O)C2)c(OC(C)C)c1 [Nutlin-3] + C=CCn1c(=O)c2cnc(Nc3ccc(N4CCN(C)CC4)cc3)nc2n1-c1cccc(C(C)(C)O)n1 [MK1775] (first compound 0.5 µM, partner dose 0.1 µM) | 68.7 | 93.1 | 85.1 | 44.2 | 80.4 | 95.8 | 108 | 79.8 | 84.6 | 63 |
| Cc1cn(-c2cc(NC(=O)c3ccc(C)c(Nc4nccc(-c5cccnc5)n4)c3)cc(C(F)(F)F)c2)cn1 [nilotinib] + COc1ccc(Cl)c(Nc2nc3ccccc3nc2NS(=O)(=O)c2cccc(NC(=O)C(C)(C)N)c2)c1 [XL147] (first compound 1 µM, partner dose 4 µM) | 79.4 | 92.9 | 74.6 | 84.3 | 132 | 79.7 | 82.1 | 90.8 | 119 | 129 |
| Cc1cc(Nc2cc(N3CCN(C)CC3)nc(/C=C/c3ccccc3)n2)n[nH]1 + COc1ccc(Cl)c(Nc2nc3ccccc3nc2NS(=O)(=O)c2cccc(NC(=O)C(C)(C)N)c2)c1 [XL147] (first compound 0.2 µM, partner dose 4 µM) | 69.8 | 70.9 | 56.1 | 71.8 | 81.7 | 72.8 | 91.3 | 80.4 | 77.8 | 80.9 |
| Cc1cn(-c2cc(NC(=O)c3ccc(C)c(Nc4nccc(-c5cccnc5)n4)c3)cc(C(F)(F)F)c2)cn1 [nilotinib] + Cc1ccc(NC(=O)c2cccc(N(C)C)c2)cc1NC(=O)c1ccc(O)cc1 [ZM336372] (first compound 1 µM, partner dose 10 µM) | 78.3 | 92.9 | 87.5 | 95.1 | 95.3 | 93.1 | 87.5 | 99.3 | 108 | 81.7 |
